Experimental data from PubChem BioAssay AID485297 (National Center for Advancing Translational Sciences (NCATS), 2010).
The whole screen tested about 320,000 compounds, of which about 9,100 (2.8%) were called active. The shares of active, inactive and inconclusive entries below differ from those in the screen. The call rests on the fitted dose curve; in most records, active means well fitted activation curve with a large enough effect; inconclusive means small, poorly fitted or top-dose-only effect; inactive means no such curve, though single readings can be large or run the other way. A potency beside an inconclusive call is a rough fit, not a confirmed value.

assay: qHTS Assay for Rab9 Promoter Activators; settings: Huh7 Rab9 promoter-luciferase reporter, luminescence, 24 h; series mostly up to 9.22 µM; activation, negative = inhibition: at the top concentration; further: nearly all actives have a fitted effect of over 60% in size; on activation, negative = inhibition: % of control where 0% means no effect
Procedure, shortened: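 Huh7 cells stably carrying Rab9 promoter–luciferase reporter, plated 1500 cells/well, compound added after 2 h and incubated 24 h at 37 °C; luciferase luminescence then read after 10 min with detection reagent.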
Potency means the concentration at half of the fitted maximal effect; tags describe the fitted curve by direction and shape.

Potency, inconclusive:
Cc1c(-c2ccccc2)[nH]n2c(=O)c3c(nc12)CCCC3 3.16 µM [activator, partial curve]
C=CCOc1ccccc1CNc1ccc2c(c1)OCCO2 0.891 µM [activator, partial curve]
O=C(Nc1ccccn1)c1c(O)c2cccc3c2n(c1=O)CCC3 3.55 µM [activator, partial curve]
Cc1ccn2c(CN3CCOCC3)c(-c3ccccc3)nc2c1 3.55 µM [activator, single point]
CN(C)c1ccc(NC(=O)c2cnsn2)cc1 0.501 µM [activator, full curve, poor fit]
CCCOC(=O)Cn1cnc2scc(-c3ccc(OC)cc3)c2c1=O 6.31 µM [activator, partial curve]
CC(=O)NC1Sc2ccccc2N=C1c1ccccc1 (configuration not stated) 3.16 µM [activator, partial curve]
N#Cc1ccccc1NC(=O)CSc1nccn1CCc1ccccc1 2.82 µM [activator, partial curve]
CCCn1nnnc1SCC(=O)c1ccc2c(c1)OCCO2 5.01 µM [activator, single point]
CN1CCN(C2=C(Cl)C(=O)N(CCc3ccccc3)C2=O)CC1 5.62 µM [activator, single point]
Cc1ccc(NC(=O)CSc2ccc(-c3ccc4c(c3)OCO4)nn2)cc1F 5.62 µM [activator, single point]
C/C(=N\Nc1cccc2cccnc12)c1ccccc1O 3.55 µM [activator, single point]
O=C(COC(=O)c1cc(S(=O)(=O)Nc2ccccc2Cl)ccc1O)Nc1nc2ccccc2s1 0.891 µM [activator, single point]
CC1(C)CCC(=O)N2CC[C@H]3C[C@H](OC(=O)Nc4ccc5c(c4)OCO5)C[C@@H]1[C@H]32 3.16 µM [activator, partial curve]
C/C(Cl)=C/CSc1nn2c(=O)c3ccccc3nc2s1 2.82 µM [activator, partial curve]
CCCC/C=C1\CCc2c([nH]c3ccccc23)C1=O 2.82 µM [activator, partial curve]
Fc1cc(F)c2nc(Nc3nc4cc5c(cc4s3)OCO5)sc2c1 5.62 µM [activator, single point]
Cc1ccc(-n2nc3ccc(N)cc3n2)cc1Cl 0.501 µM [activator, partial curve, poor fit]
Cc1cccc(C(=O)Nc2ccc(C(=O)/C=C/c3ccncc3)cc2)c1 5.62 µM [activator, single point]
O=C(NC1CCCCC1)c1cc2cc(Br)ccc2o1 2.51 µM [activator, single point]
CCOC(=O)c1ccccc1NC(=O)CSc1nc2ccccc2o1 3.55 µM [activator, partial curve]
C/C(CC(C)C)=N\NC(=O)Nc1ccccc1 3.16 µM [activator, partial curve]
O=C(Nc1cccnc1Cl)c1cc(-c2ccc(Br)cc2)on1 5.62 µM [activator, single point]
COc1ccc2nc(NC(=O)CSc3n[nH]c(N)n3)sc2c1 1.26 µM [activator, partial curve]
CC(=O)Nc1ccc(C(=O)NCCc2ccccc2)cc1 3.55 µM [activator, partial curve]
COc1ccc(NC(=O)Nc2cccc(C)n2)cc1 3.16 µM [activator, partial curve]

Potency, active:
CC(=O)N1CCC(=NNc2nc3ccccc3s2)CC1 3.98 µM
Fc1ccc(NC(=S)Nc2nccs2)cc1 3.55 µM
Cc1noc(N)c1C(=O)Nc1ccc(C(C)(C)C)cc1 3.16 µM
O=c1[nH]c2ccccc2nc1/C=C/c1ccc(F)cc1 3.98 µM
Cc1ccc(NC(=O)OCc2cccs2)cc1 1.12 µM
N#Cc1ccccc1OCc1nnc(-c2ccccc2Br)o1 1.41 µM
CCCOc1ccc(-c2cn3ccccc3n2)cc1 0.316 µM
Cn1nc(/C=C/c2ccccc2)ccc1=O 3.16 µM
O=C(NNC(=S)Nc1ccccc1)c1ccc(O)cc1 3.55 µM
Brc1ccc(-c2nnc(-c3ccco3)o2)cc1 3.98 µM
COc1ccc2c(=O)c(-c3ccccc3)coc2c1 0.794 µM
O=C(CSc1nnc(-c2ccco2)o1)N1CCCCC1 3.16 µM
COc1ccc(/C=C/C(=O)Nc2cc(C)on2)cc1 1.58 µM

activation, negative = inhibition, inactive:
Nc1ccc(C(=O)N/N=C/c2c[nH]c3ccccc23)cc1 3.34%
Cc1ccc(C2CC2C(=O)NNC(=S)Nc2cccc(C)c2)cc1 (configuration not stated) -0.538%
CCOc1ccc(N(C)C(=O)CCc2nnc3ccc(N4CCC5(CC4)OCCO5)nn23)cc1 -0.128%
CCCOc1ccc(C(=O)NC2CCSc3ccccc32)cc1 (configuration not stated) -0.621%
COc1ccccc1CCNC(=O)C(=O)NCC1CCCN1S(=O)(=O)c1ccccc1 (configuration not stated) -0.0226%
O=C(CC1SC(N2CCCCC2)=NC1=O)Nc1cccc(C(=O)NCc2ccc(F)cc2)c1 (configuration not stated) 4.43%
O=c1nc2ccccc2c2n1CC(CN1CCN(c3ccccc3F)CC1)N2 (configuration not stated) -9.82%
O=C1NC(c2ccccc2)(C(F)(F)F)SC2=CCCCCN12 (configuration not stated) -1.41%
Cc1cc(N2CCN(c3ccccc3F)CC2)nc2cc(O)ccc12 9.68%
O=C(Cc1ccc(Cl)cc1)Nc1ccccc1N1CCN(C(=O)c2ccccc2)CC1 9.19%
O=C(COC(=O)c1ccc(Br)cc1)NCCC1=CCCCC1 -1.94%
COc1ccc(C(=O)Nc2ccc(Cl)cn2)cc1S(=O)(=O)N1CCCC1 -2.37%
CC(C)Nc1nnc(Sc2ccc(Cl)cc2[N+](=O)[O-])s1 0.791%
